# Measured values: patent US20250326800A1, “NOVEL POLYPEPTIDES” (Oncopeptides Innovation 1 AB, priority 2022, published 2025)
# B1: Example Compound 144: dual engager without C-terminal His6 tag (protein)
# chain: VDNKFNKENQFADEEIAALPNLNFYQKWAFIRKLMDDPSQSANLLAEAKKLNDAQAPKGGGSGGGGSGVDNKFNKENQFADEEIAALPNLNFYQKWAFIRKLMDDPSQSANLLAEAKKLNDAQAPKGGGSGGGGSGVDNKFNKEVQMAQFEIRKLPNLNHHQSFAFIKSLMDDPSQSANLLAEAKKLNDAQAPK
# Tests used:
# CD16a = experiment: CD16 activation Jurkat-Lucia Luciferase reporter assay; assay type: cell-based, human
# MM1.S target cells = experiment: Calcein-release-based in vitro cytotoxicity assay with NK cells; assay type: cell-based; conditions: 4 h co-culture, NK:target 1:1
molecule,measurement,setting,value
B1,CD16a activation in the absence of target cells,CD16a; no MM.1S cells,no detectable activation
same,CD16a activation,"CD16a; presence of MM.1s target cells, 24 h, normalized to Elotuzumab",demonstrated CD16a activation
same,NK cell mediated killing of MM.1S cells,MM1.S target cells,induced NK cell mediated killing of MM.1S cells
